# “Also recorded” adds a separate entry of the source.
# B1: 1E7-Fc: 1E7 VHH expressed as a bivalent human Fc fusion protein, SEQ ID NO:28 (protein)
# chain: METDTLLLWVLLLLAAQPAMAAGSEVQLVESGGGLVQPGGSLRLSCEASGFNFERYDMSWVRQAPGKGPEWVSRLNSFGRSTYYLDSVKGRFTVSRDNAQNMLYLQMNNLKPEDTAVYYCARSTDVSPGLSSWWTYEYDVWGQGTQVTVSSGPGGQGTGPGGS[human IgG1 Fc with changes not spelt out]
# modifications: bivalent Fc dimer
# Columns and labels:
# [1] = test system: EBC-1, UW-Lung 21, HeLa WT and HeLa MET KO cells; test: Cell proliferation assay (Cell Counting Kit-8), NSCLC and HeLa cell lines; assay type: cell-based, human; settings: panel of four cell lines, 72 h treatment
# Description: (§1) To determine if 1E7-Fc by itself was a therapeutic and inhibited MET signaling, as has been seen with other MET antibodies such as onartuzumab and emibetuzumab (De Mello et al. 2020), we performed a cell proliferation assay and Western blot to query effects of 1E7-Fc on cell behavior and downstream signaling pathways. Cell viability was measured using a panel of the same four cell lines. […] In contrast, treatment with the FDA-approved MET TKI, capmatinib, blocked MET, AKT, and ERK phosphorylation, as anticipated (FIG. 4B).
# (§2) Cells were plated in 96-well plates at densities ranging from 3,000 to 6,000 cells per well according to each cell growth rate. Twenty-four hours after-plating, cells were treated with indicated doses of 1E7-Fc or control (PBS) and incubated for 72 h. After 72 h drug treatment, Cell Counting Kit-8 reagent was added (Dojindo Molecular Technologies) and absorbance measured at 450 nm on a SpectraMax i3 plate reader (Molecular Devices). The absorbance of treated wells was normalized to control wells and the half-maximal inhibitory concentration (IC50) values were calculated using GraphPad Prism.
# [2] = test system: Detroit 562 and T-47D cells; test: Immunofluorescent live cell imaging, Detroit 562 and T-47D; assay type: cell-based, human
# Description: Immunofluorescent live cell imaging was performed on high MET expressing cell line, Detroit 562, to assess the internalization of 1E7-Fc across the plasma membrane.
# Cells were seeded into an eight-well chamber coverslip slide (#1.5 thickness) at approximately 40,000 to 80,000 cells per well depending on cell type. After incubating at 37° C. for 48 h, cells were stained with a green CellMask Plasma Membrane stain (C37608, Thermo Fisher Scientific) and blue Hoechst 33342 (62249, Thermo Fisher Scientific) in accordance with manufacturer procedure. The stained cells were then placed in a temperature- and CO2-controlled Tokei Hit Biochamber and imaged using a Nikon Ti2 Spinning Disk Confocal Microscope at an objective of 40X with excitation laser 405, 488, and 640 nM. At the beginning of the imaging sequence, cells were treated with 1 μM Alexa Fluor 647-labeled 1E7-Fc antibody (A20186, Thermo Fisher Scientific) for 15 min. The cell medium was then suctioned out and phenol red-free DMEM media was added (21-064-029, Thermo Fisher Scientific). Images were acquired immediately prior to treatment and every 5 min for the first 3 h post-treatment, and then every 30 min for the next 9 h. Images were processed using Nikon NIS-Elements imaging software and ImageJ.
# MET expressing cells = test: Flow cytometry of 1E7-Fc on NSCLC and HeLa cell lines; assay type: cell-based, human; settings: 1 μg/mL, 1 h
# Description: (§3) 1E7 was cloned into an Fc vector to create a bivalent human Fc construct, 1E7-Fc, with an increased molecular weight of 86.6 kDa. […] We confirmed that 1E7-Fc only binds to human MET by performing BLI with human MET and other human surface proteins. […] Two MET-altered NSCLC cell lines, EBC1 and UWLung 21, and two HeLa cell lines, wild type (HeLa WT) and MET knockout (HeLa MET KO), were stained with 1E7-Fc followed by a secondary antibody that was fluorophore labeled for flow cytometry. […] Live cell immunofluorescent imaging was next performed to determine whether 1E7-Fc was internalized in MET-altered NSCLC cell lines after binding to the MET receptor. The cells were incubated with a green CellMask Plasma Membrane Stain followed by treatment with Alexa Fluor™ 647-labeled 1E7-Fc. […] Distinct accumulation within the internal cellular components of MET expressing cell lines is indicative of the internalization of 1E7-Fc (FIG. 4C).
# Cells were harvested with Trypsin for 5 minutes at 37C and 5% CO2. 1×10^6 cells per condition were incubated with 1 ug/mL of 1E7 Fc for 1 h on ice. Cells were washed and stained with 5 μg/mL Goat anti-Human IgG Fc, PE for 1 h on ice. Cells were washed three times and resuspended in flow cytometry staining buffer (eBioscience). Data was collected with the Attune Flow Cytometer (ThermoFischer), and at least 10 000 viable cells were gated and analyzed with FlowJo software.
# [3] = test system: MET, AKT and ERK phosphorylation; test: Western blot of MET signaling, NSCLC and HeLa cell lines; assay type: cell-based, human
# Description: as §1
# Cells were seeded in 10 cm dishes and treated with either control (PBS), 10 nM, or 100 nM 1E7-Fc when cells were reached about 75% confluency, and then cells were harvested 4 h after treatment. Five nM Capmatinib was used as a positive control. Cell lysates were generated as previously described (SenthilKumar et al. 2020).
# [4] = In vivo stability of 1E7-Fc, serum dilution ELISA on human MET; parameters: species or system mice; settings: tail vein
# Description: An in vivo stability assay was performed to characterize the viability of 1E7-Fc to stay in the body for therapy and imaging applications. Nontumor bearing mice were injected with 1E7-Fc via the tail vein, and the blood was collected at different time points across a month. Serum was obtained from the collected blood and assessed for levels of residual 1E7-Fc that binds to human MET on a dilution ELISA. Appreciable binding occurred up to 1 week (FIG. 7D).
# Five-week-old BALB/cJ white mice were purchased from Envigo for in vivo stability study. Mice were intravenously injected through the tail vein with 1E7-Fc (100 μg in 100 μl PBS). Mice were euthanized, and whole blood was collected at 10 different time points. Mouse sera were collected by centrifuging the whole blood at 1500×g for 10 minutes. The sera were then used in ELISA to evaluate their binding to human c-MET.
# [5] = test system: Detroit 562 and T-47D cells; test: Proliferation assay (Cell Counting Kit-8), Detroit 562 and T-47D; assay type: cell-based, human; settings: 72 h, high concentrations
# Description: (§4) To determine if 1E7-Fc by itself was therapeutic and inhibited MET signaling, both cell proliferation assays and western blotting examining MET downstream signaling were evaluated in Detroit […] cell and T-47D as a negative control. The MET tyrosine kinase inhibitor capmatinib was used as a positive control for MET downstream signaling.
# as §2, with “growth rate. After overnight incubation, cells were” for “growth rate. Twenty-four hours after-plating, cells were”, “72 h of drug treatment,” for “72 h drug treatment,”, “to control wells, and the” for “to control wells and the”
# [6] = test system: MET expressing HNSCC cells; test: Flow cytometry of 1E7-Fc on HNSCC cell lines; assay type: cell-based, human; settings: 100 nM
# Description: Western Blot was conducted to evaluate MET and phosphorylation of MET (p-MET) expression on a panel of HSNCC cell lines grown under normal growth cell culture. […] Breast cell line T-47D was identified to have no MET or p-MET expression (FIG. 9A). IHC staining of MET in the cell lines grown as xenografts confirmed our western blot findings, with only Detroit 562 showing significant MET staining (FIG. 9B). Flow cytometry was performed to confirm the specificity of our camelid antibody to MET.
# Single cell suspension of each cell line was prepared by trypsinization. About 0.5×10^6 cells were incubated with 100 nM of 1E7-Fc for 30 min on ice. Then cells were washed and stained with 1 μg/mL Goat anti-Human IgG Fc, PE (eBioscience) for 30 min on ice in the dark. Cells were washed three times and resuspended in flow cytometry staining buffer (2% FBS and 0.1% NaN3 in PBS). Data was collected with the Attune Flow Cytometer (Thermo Fisher), and at least 10,000 viable cells were gated and analyzed with FlowJo.
# [7] = test system: human MET and other human surface proteins; test: BLI specificity of 1E7-Fc with human MET and other human surface proteins; assay type: binding; settings: FIG. 4A
# Description: as §3
# Biolayer interferometry was done with the Octet R8 (Sartorius) instrument. Biotinylated human c-MET was captured on SAX (high precision streptavidin) biosensor. 1 to 4 serial dilutions of 1E7-Fc in 1% BSA starting at 1 μM were bound to the biosensor tip with c-MET.
# [8] = test system: MET, AKT and ERK phosphorylation; test: Immunoblot of MET downstream signaling, Detroit 562 and T-47D; assay type: cell-based, human
# Description: as §4
# Cells were seeded in 10-cm dishes and treated with either control (i.e., PBS), 10 nM, or 100 nM 1E7-Fc when cells reached about 75% confluency, and then cells were harvested 4, 24, or 48 h after treatment. Capmatinib (5 nM) was used as a positive control for inhibition of MET signaling. Cell lysates were prepared as previously described (Könning et al. 2017). Equal amounts of protein were analyzed by sodium dodecyl-sulfate polyacrylamide gel electrophoresis (SDS-PAGE), transferred to polyvinylidene fluoride membranes, and probed with specific primary antibodies. Targets were detected with horseradish peroxidase (HRP)-conjugated secondary antibodies (BioRad) using Enhanced Chemiluminescence western blot substrates (Pierce) and imaged on a LI-COR Odyssey Fc. The specific antibodies are as listed: MET, phospho-MET (Tyr1234/1235), AKT, phosphor-AKT (Ser473), p44/42 MAPK (Erk1/2), phosphor-p44/42 MAPK (Erk1/2) *Thr202/Try204), GAPDH.
# [9] = test system: MET expressing cell lines; test: Live cell confocal microscopy, binding and internalization of 1E7-Fc; assay type: cell-based, human; settings: 2 h post-treatment
# Description: as §3
# Cells were seeded into an 8 well chamber coverslip slide (#1.5 thickness) at approximately 20,000 to 40,000 cells per well depending on cell type. After incubating at 37C for 48 hours, cells were stained with a green CellMask™ Plasma Membrane stain (C37608, Thermo Fisher Scientific) in accordance with manufacturer procedure. The stained cells were then placed in a temperature and CO2 controlled Tokei hit Biochamber and set to be imaged every minute for 2 hours using a Nikon Ti2 Spinning Disk Confocal Microscope at an objective of 40x with 488 nm and 547 nm laser settings. At the beginning of the imaging sequence, cells were treated with 1 mM Alexa Fluor™ 647-labeled 1E7-Fc antibody (A20186, Thermo Fisher Scientific) for 10 m. The cell media was then suctioned out and phenol red free DMEM media was added (21-063-029, Thermo Fisher Scientific). Images were processed using Nikon NIS-Elements imaging software and ImageJ.
molecule,measurement,setting,value
B1,effect on cell viability,[1],no effect on cell viability; also recorded: does not impact cell survival
same,time after exposure up to which internalization was visualized,[2]; Detroit 562,up to 8 h
same,time of exposure within which binding occurred,[2]; Detroit 562,≤ 30 min
same,clearance from cellular compartment,"[2]; Detroit 562, by 12 h",rapid clearance
same,binding and internalization,"[2]; T-47D, negative control cell line",No binding nor internalization
same,binding by flow cytometry,MET expressing cells; EBC-1 (MET amplified),selectively bind; also recorded: bound tightly
same,binding by flow cytometry,MET expressing cells; HeLa MET KO,did not bind
same,binding by flow cytometry,MET expressing cells; HeLa WT,moderately
same,binding by flow cytometry,MET expressing cells; UW-Lung 21 (MET exon 14 mutated),selectively bind; also recorded: bound tightly
same,effect on phosphorylation of MET and downstream signaling of AKT and ERK,"[3]; 10 nM or 100 nM, 4 h",did not impact
same,biological effect on MET-expressing cells (agonist/antagonist),[3]; conclusion from proliferation assay and Western blot,no biological effect
same,In vivo stability,"[4]; FIG. 7D legend, mice, serum dilution ELISA",around 3 days
same,time up to which appreciable binding of serum 1E7-Fc to human MET occurred,"[4]; nontumor bearing mice, 100 μg",up to 1 week
same,effect on cell viability / cytotoxicity,[5],no cytotoxic effects; also recorded: no impact on cell viability
same,binding by flow cytometry,[6]; Detroit 562 (high MET),high binding affinity and specificity; also recorded: higher binding
same,binding by flow cytometry,[6]; other low MET expressing cell lines,minimal to no binding
same,"binding specificity, MET versus other surface proteins",[7],binds specifically to MET; also recorded: binding only to MET
same,function on MET signaling pathway (agonist/antagonist),[8],neither as agonist nor antagonist
same,effect on MET phosphorylation or downstream signaling of AKT and ERK,"[8]; 10 nM or 100 nM, 4, 24 or 48 h",no inhibitory effects
same,cell surface binding and internalization,"[9]; EBC-1, Alexa Fluor 647-labeled",high binding to the cell surface (green) with internalization
same,cell surface binding and internalization,[9]; HeLa MET KO,no binding
same,cell surface binding and internalization,[9]; HeLa WT,some binding
same,cell surface binding and internalization,"[9]; UW-Lung 21, Alexa Fluor 647-labeled",high binding to the cell surface (green) with internalization
